One substance from paper PMC12224983, “Isoquercitrin Alleviates Diabetic Nephropathy by Inhibiting STAT3 Phosphorylation and Dimerization” (Advanced Science, 2025) can be followed below.

The target of the experiment is signal transducer and activator of transcription 3 (STAT3) (human (endogenous in 293T)) (UniProt P40763). Put plainly: cross-linking; 293T cells treated with 5, 10, 20 umol/L isoquercitrin or 0.1% DMSO for 24 h; nondenaturing lysate at 12 mg/mL; 5 mM DSS, 4 °C, 1 h; stopped with Tris pH 7.5; SDS-PAGE and Western blot for STAT3 dimers and monomers. For orientation: A western blot detects proteins with antibodies after separation by electrophoresis.

What is called stoichiometry N is a count of units in the complex or per binding partner. “signal transducer and activator of transcription 3 (STAT3) (a stretch of the chain, sequence not shown) (natural protein; other documents disagree on this pair)” yielded a stoichiometry N of 2.
